These results are taken from publication PMC4336329 (PLoS ONE, 2015).

About 14,000 (4.5%) of roughly 310,000 compounds showed an effect of 50% or more. Effects have a minus sign here. This is one part of the list.
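Note: peak tail current of the secondary pulse compared with the same well before compound.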

For this test, the target named is human ether-à-go-go-related gene (hERG) potassium channel (human, UniProt Q12809). Put plainly: primary screen, population patch clamp on CHO cells stably expressing hERG.
Chain of human ether-à-go-go-related gene (hERG) potassium channel (Q12809 whole entry, looked up): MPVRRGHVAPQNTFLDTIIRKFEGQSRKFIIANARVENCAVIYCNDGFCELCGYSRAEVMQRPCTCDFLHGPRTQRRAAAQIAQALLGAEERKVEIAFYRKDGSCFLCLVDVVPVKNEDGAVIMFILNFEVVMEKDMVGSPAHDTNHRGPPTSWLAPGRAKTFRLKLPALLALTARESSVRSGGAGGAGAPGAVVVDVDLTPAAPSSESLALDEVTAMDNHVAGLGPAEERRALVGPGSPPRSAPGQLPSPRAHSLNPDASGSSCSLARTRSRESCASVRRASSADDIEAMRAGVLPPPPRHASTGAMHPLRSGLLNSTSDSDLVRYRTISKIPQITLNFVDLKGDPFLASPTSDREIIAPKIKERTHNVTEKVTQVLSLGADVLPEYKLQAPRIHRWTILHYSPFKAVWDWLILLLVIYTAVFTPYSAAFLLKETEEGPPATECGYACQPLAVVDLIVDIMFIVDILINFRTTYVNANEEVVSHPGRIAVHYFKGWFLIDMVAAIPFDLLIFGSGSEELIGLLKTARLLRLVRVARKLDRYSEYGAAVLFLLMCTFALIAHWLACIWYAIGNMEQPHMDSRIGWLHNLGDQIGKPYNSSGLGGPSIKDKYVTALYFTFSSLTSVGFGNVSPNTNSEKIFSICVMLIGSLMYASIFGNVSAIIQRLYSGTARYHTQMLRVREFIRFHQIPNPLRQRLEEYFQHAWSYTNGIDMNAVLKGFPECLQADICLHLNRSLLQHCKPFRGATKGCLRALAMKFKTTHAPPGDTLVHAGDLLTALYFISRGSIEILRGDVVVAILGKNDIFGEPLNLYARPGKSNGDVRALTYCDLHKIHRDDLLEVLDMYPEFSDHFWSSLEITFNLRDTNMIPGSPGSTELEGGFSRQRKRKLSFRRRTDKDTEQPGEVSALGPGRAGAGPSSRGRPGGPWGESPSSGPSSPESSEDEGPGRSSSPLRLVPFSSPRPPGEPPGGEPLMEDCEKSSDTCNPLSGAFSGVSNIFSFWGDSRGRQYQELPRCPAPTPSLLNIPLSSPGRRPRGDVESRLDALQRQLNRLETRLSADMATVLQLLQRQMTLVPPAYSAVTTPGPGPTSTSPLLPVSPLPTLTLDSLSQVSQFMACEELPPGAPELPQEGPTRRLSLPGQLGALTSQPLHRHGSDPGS
As for `O=S(=O)(CCN1CCOCC1)c1ccccc1`, the “hERG current change (%, negative = inhibition) at 10uM” value was 8.81%.

`C/C(=N\S(=O)(=O)c1ccc(C)cc1)N(C)C`: the “hERG current change (%, negative = inhibition) at 10uM” value stood at 6.9%.

On to `COc1ccc(C(=O)N/C(=C\c2cn(S(=O)(=O)N(C)C)c3ccccc23)C(=O)NCCCn2ccnc2)cc1`, for which the “hERG current change (%, negative = inhibition) at 10uM” value amounted to 1.07%.

Regarding `CC(C)CCNC(=O)Cc1c(C(=O)O)[nH]c2ccc(Cl)cc12`, the “hERG current change (%, negative = inhibition) at 10uM” value turned out to be 17.6%.

Turning to `O=C(COC(=O)CNC(=O)C1CCCCC1)Nc1ccc(Cl)cc1F`, the “hERG current change (%, negative = inhibition) at 10uM” value is recorded as -4.38%.

For `O=C1CN(c2ccccc2F)C(=O)CN1c1ccccc1F`, the “hERG current change (%, negative = inhibition) at 10uM” value was found to be 4.63%.

As to `CCOc1ccc2nc(NC(=O)CSC3=NCCS3)sc2c1`, the “hERG current change (%, negative = inhibition) at 10uM” value stood at 2.84%.

Regarding `CCN(CC(=O)NCc1ccc(F)cc1)Cc1nc2cc(Cl)ccc2c(=O)[nH]1`, the “hERG current change (%, negative = inhibition) at 10uM” value was -72.6%.

For the molecule `COCCCNC(=O)c1cc(S(=O)(=O)N2CCOCC2)ccc1SCc1cccc(OC)c1OC`, the “hERG current change (%, negative = inhibition) at 10uM” value is -23.9%.

`Cc1ccc(C(=O)NC(C)CCc2ccccc2)cc1[N+](=O)[O-]` (centres unmarked): the “hERG current change (%, negative = inhibition) at 10uM” value is reported as -13.9%.

Take `COc1nc(N)nc(NC23CC4CC(CC(C4)C2)C3)n1`: the “hERG current change (%, negative = inhibition) at 10uM” value was -39.7%.

With `Nc1ccccc1SCc1cc([N+](=O)[O-])cc2c1OCOC2`, the “hERG current change (%, negative = inhibition) at 10uM” value is recorded as -21.2%.

Turning to `CCN(CC)S(=O)(=O)c1cc(NC(=O)CNc2cccc(S(=O)(=O)N3CCCC3)c2)ccc1C`, the “hERG current change (%, negative = inhibition) at 10uM” value is -18.1%.

As for `CCc1sc(NS(C)(=O)=O)nc1-c1ccccc1`, the “hERG current change (%, negative = inhibition) at 10uM” value was -10.3%.

Turning to `COc1ccc(N(CC(=O)NC2CCCCCC2)S(=O)(=O)c2c(C)nn(C)c2C)cc1`, the “hERG current change (%, negative = inhibition) at 10uM” value was -28.2%.

With `O=C(CS(=O)c1ccc(C(F)(F)F)cc1[N+](=O)[O-])Oc1ccc(Cl)cc1` (centres unmarked), the “hERG current change (%, negative = inhibition) at 10uM” value was determined as 25.1%.

`N#Cc1ccc(Cl)cc1NC(=O)CNCc1cccs1.O=C(O)C(=O)O`: the “hERG current change (%, negative = inhibition) at 10uM” value is recorded as -22.2%.

Take `O=C1c2ccccc2-c2nc3ccccc3nc21`: the “hERG current change (%, negative = inhibition) at 10uM” value was -17.4%.

Regarding `CC(C)(C)OC(=O)N1CCC(c2c(C(=O)NC3CC3)cnn2-c2ccccc2)CC1`, the “hERG current change (%, negative = inhibition) at 10uM” value is reported as -22.9%.

Regarding `CCOc1ccccc1OCC(=O)Nc1ccc(S(=O)(=O)Nc2ncccn2)cc1`, the “hERG current change (%, negative = inhibition) at 10uM” value is listed as 2.36%.

Take `Cc1cc(=O)c2c(C)nn(-c3ccccc3)c2[nH]1`: the “hERG current change (%, negative = inhibition) at 10uM” value is -8.94%.

For `O=C(O)C1CC(=O)N(c2ccc3c(c2)OCCO3)C1` (centres unmarked), the “hERG current change (%, negative = inhibition) at 10uM” value stood at 5.75%.

Consider `CCC(=O)N1CCN(c2nc(CC)nc3sc4c(c23)CCCC4)CC1`, for which the “hERG current change (%, negative = inhibition) at 10uM” value is -71.7%.

As to `CNC(=O)C(=O)NCC1OCCCN1S(=O)(=O)c1cccs1` (centres unmarked), the “hERG current change (%, negative = inhibition) at 10uM” value is -7.69%.

Regarding `Cc1cc(C)n(/N=C/c2ccccc2)c(=O)c1C#N`, the “hERG current change (%, negative = inhibition) at 10uM” value was 17%.

With `Cc1ccc(NC(=O)c2cccc(S(=O)(=O)N3CCN(C)CC3)c2)cc1F`, the “hERG current change (%, negative = inhibition) at 10uM” value was -24.8%.

Consider `CCN(CC)c1nc(NN)nc(Nc2ccc(C)c(Cl)c2)n1`, for which the “hERG current change (%, negative = inhibition) at 10uM” value is reported as 14.7%.

With `O=C(O)CNC(=S)NCc1ccccc1`, the “hERG current change (%, negative = inhibition) at 10uM” value was 3.64%.

On to `O=S(=O)(NCCNc1ncc(C(F)(F)F)cc1Cl)C(F)(F)F`, for which the “hERG current change (%, negative = inhibition) at 10uM” value is given as -49.7%.

For the molecule `CCn1c(C(C)NC(=O)Cc2ccccc2)nc2ccccc21` (centres unmarked), the “hERG current change (%, negative = inhibition) at 10uM” value was -2.26%.

With `O=C(NC1CCCCC1)C(c1ccncc1)N(Cc1ccccc1)C(=O)c1ccc(-c2ccccc2)[nH]1` (centres unmarked), the “hERG current change (%, negative = inhibition) at 10uM” value was found to be 4.6%.

As to `O=C(COc1ncnc2ccc(Br)cc12)Nc1ccc(N2CCOCC2)cc1`, the “hERG current change (%, negative = inhibition) at 10uM” value is listed as -5.34%.

For the molecule `CSc1ccc(/C=C/C(=O)c2c(O)cc(C)oc2=O)cc1`, the “hERG current change (%, negative = inhibition) at 10uM” value turned out to be 13.2%.

Take `COc1ccc(CCNC(=O)c2ccc(CNc3nc(=S)[nH]c4ccccc34)cc2)cc1OC`: the “hERG current change (%, negative = inhibition) at 10uM” value was determined as 0.739%.

For `COc1cc(-c2c(C#N)c(N)nc3c2CCCC3)cc(OC)c1OC`, the “hERG current change (%, negative = inhibition) at 10uM” value is listed as -10.8%.

As to `C/C(Cl)=C\Cn1c(O)c(N=NC(N)=S)c2cc(Br)ccc21`, the “hERG current change (%, negative = inhibition) at 10uM” value was 8.96%.

Regarding `O=C(NCCN1C(=O)S/C(=C\c2ccccc2F)C1=O)C1=COCCO1`, the “hERG current change (%, negative = inhibition) at 10uM” value is -0.827%.

Regarding `CCOC(=O)C1CCCN(c2nc3ccccc3nc2C(C#N)C(=O)OCC)C1` (centres unmarked), the “hERG current change (%, negative = inhibition) at 10uM” value is reported as -14%.

Turning to `COCCCN(C(=O)CCSc1ccc(F)cc1)c1c(N)n(Cc2ccccc2)c(=O)[nH]c1=O`, the “hERG current change (%, negative = inhibition) at 10uM” value worked out at 4.09%.

On to `CCOc1ccc(C(=O)NCc2ccco2)cc1OCC`, for which the “hERG current change (%, negative = inhibition) at 10uM” value came out at 13.3%.

As for `C=Cc1ccc(C(=O)N2CCCC(CCC(=O)N3CCN(c4ccccn4)CC3)C2)cc1` (centres unmarked), the “hERG current change (%, negative = inhibition) at 10uM” value is reported as -4.57%.

For `CNNC(=S)Nc1cccc(SC)c1`, the “hERG current change (%, negative = inhibition) at 10uM” value was found to be 13.9%.

As to `CCOC(=O)c1sc(NC(=O)CN2C(=O)NC3(CC(C)CC(C)(C)C3)C2=O)c(C(=O)OCC)c1C` (centres unmarked), the “hERG current change (%, negative = inhibition) at 10uM” value is listed as 5.85%.

With `COc1ccccc1CNC(=O)C(=O)NCC1OCCN1C(=O)c1ccc(Cl)cc1` (centres unmarked), the “hERG current change (%, negative = inhibition) at 10uM” value is -7.88%.

In the case of `CCc1ccc(NC(=S)N2CCN(C)CC2)cc1`, the “hERG current change (%, negative = inhibition) at 10uM” value is 1.15%.

In the case of `CCOc1ccc(C2NC(=O)C(C#N)=C(S)N2c2ccc(OC)cc2)cc1OC` (centres unmarked), the “hERG current change (%, negative = inhibition) at 10uM” value was -1.41%.

For `CN(CC(=O)Nc1cccc(F)c1)C(=O)C1CSC2(C)CCC(=O)N12` (centres unmarked), the “hERG current change (%, negative = inhibition) at 10uM” value was found to be 4.69%.

On to `O=C(C[n+]1ccccc1)N1c2ccccc2Sc2ccccc21.[Cl-]`, for which the “hERG current change (%, negative = inhibition) at 10uM” value is reported as 20.7%.

With `C=CCc1cccc(OC)c1OCCOCCn1ccnc1.O=C(O)C(=O)O`, the “hERG current change (%, negative = inhibition) at 10uM” value is recorded as -19.9%.

For `COC(=O)c1ccc2nc(Nc3nc4ccc(F)cc4s3)sc2c1`, the “hERG current change (%, negative = inhibition) at 10uM” value stood at 0.543%.

In the case of `COC(=O)c1ccc(CSc2nc3c(cnn3-c3ccc(C)cc3)c(=O)[nH]2)o1`, the “hERG current change (%, negative = inhibition) at 10uM” value is on record as 6.52%.

With `O=C(C(=O)N1CCN(C(=O)c2ccco2)CC1)c1c[nH]c2ccccc12`, the “hERG current change (%, negative = inhibition) at 10uM” value is -2.67%.

As to `COc1ccccc1CNC(=O)CS(=O)(=O)c1ccccc1`, the “hERG current change (%, negative = inhibition) at 10uM” value is -26.1%.

Turning to `Cc1ccc(S(=O)(=O)N2CCCCC2)cc1NC(=O)COC(=O)Cc1cccc2ccccc12`, the “hERG current change (%, negative = inhibition) at 10uM” value is -40.9%.

For the molecule `CC(C)COC(=O)Cn1cnc2ccc(Br)cc2c1=O`, the “hERG current change (%, negative = inhibition) at 10uM” value was -9.23%.

On to `COc1ccc(OC)c(CCNC(=O)CCn2nc(C)c3c(C)n(-c4ccccc4)nc3c2=O)c1`, for which the “hERG current change (%, negative = inhibition) at 10uM” value is recorded as 18.5%.
